# The list shows a part of the results.
# Assays:
# Experiment in all cases: glycan array binding signal (z-score within array); higher = stronger binding
# Details in all cases: glycan notation: IUPAC condensed, linker removed
# [1] = target: Neu5Ac(a2-3)Gal(b1-3)GalNAc
# Method in brief: (§1)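 From the Consortium for Functional Glycomics database, 3228 arrays were curated, keeping only those whose protein sequence was available. Binding is given as a within-array Z-score averaged across arrays sharing a protein sequence and across linkers. Negative Z-scores can be read as non-binding.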
# [2] = target: Neu5Ac(a2-3)Gal(b1-3)GalNAc(b1-3)Gal(a1-4)Gal(b1-4)Glc
# Method in brief: as §1
# [3] = target: Neu5Ac(a2-3)Gal(b1-3)GalNAc(b1-4)Gal(b1-4)Glc
# Method in brief: as §1
# [4] = target: Neu5Ac(a2-3)Gal(b1-3)GalNAc(b1-4)[Neu5Ac(a2-3)]Gal(b1-4)Glc
# Method in brief: as §1
# [5] = target: Neu5Ac(a2-3)Gal(b1-3)GalNAc(b1-4)[Neu5Ac(a2-8)Neu5Ac(a2-3)]Gal(b1-4)Glc
# Method in brief: as §1
# [6] = target: Neu5Ac(a2-3)Gal(b1-3)GalNAc6S
# Method in brief: as §1
# [7] = target: Neu5Ac(a2-3)Gal(b1-3)GlcNAc
# Method in brief: as §1
# [8] = target: Neu5Ac(a2-3)Gal(b1-3)GlcNAc(b1-2)Man
# Method in brief: as §1
# [9] = target: Neu5Ac(a2-3)Gal(b1-3)GlcNAc(b1-2)Man(a1-3)[GlcNAc(b1-4)][Neu5Ac(a2-3)Gal(b1-3)GlcNAc(b1-2)Man(a1-6)]Man(b1-4)GlcNAc(b1-4)GlcNAc
# Method in brief: as §1
# [10] = target: Neu5Ac(a2-3)Gal(b1-3)GlcNAc(b1-2)Man(a1-3)[Neu5Ac(a2-3)Gal(b1-3)GlcNAc(b1-2)Man(a1-6)]Man(b1-4)GlcNAc(b1-4)GlcNAc
# Method in brief: as §1
# [11] = target: Neu5Ac(a2-3)Gal(b1-3)GlcNAc(b1-2)[Neu5Ac(a2-3)Gal(b1-3)GlcNAc(b1-4)]Man(a1-6)[Neu5Ac(a2-3)Gal(b1-3)GlcNAc(b1-2)Man(a1-3)]Man(b1-4)GlcNAc(b1-4)GlcNAc
# Method in brief: as §1
# [12] = target: Neu5Ac(a2-3)Gal(b1-3)GlcNAc(b1-3)Gal(b1-3)GlcNAc
# Method in brief: as §1
# [13] = target: Neu5Ac(a2-3)Gal(b1-3)GlcNAc(b1-3)Gal(b1-4)GlcNAc
# Method in brief: as §1
# [14] = target: Neu5Ac(a2-3)Gal(b1-3)GlcNAc(b1-3)GalNAc
# Method in brief: as §1
# [15] = target: Neu5Ac(a2-3)Gal(b1-3)GlcNAc(b1-6)GalNAc
# Method in brief: as §1
# [16] = target: Neu5Ac(a2-3)Gal(b1-3)GlcNAc6S
# Method in brief: as §1
# [17] = target: Neu5Ac(a2-3)Gal(b1-3)[Fuc(a1-4)]GlcNAc
# Method in brief: as §1
# [18] = target: Neu5Ac(a2-3)Gal(b1-3)[Fuc(a1-4)]GlcNAc(b1-3)Gal(b1-3)[Fuc(a1-4)]GlcNAc
# Method in brief: as §1
# [19] = target: Neu5Ac(a2-3)Gal(b1-3)[Fuc(a1-4)]GlcNAc(b1-3)Gal(b1-4)[Fuc(a1-3)]GlcNAc
# Method in brief: as §1
# [20] = target: Neu5Ac(a2-3)Gal(b1-3)[GlcNAc(b1-6)]GalNAc
# Method in brief: as §1
# [21] = target: Neu5Ac(a2-3)Gal(b1-3)[Neu5Ac(a2-6)]GalNAc
# Method in brief: as §1
# [22] = target: Neu5Ac(a2-3)Gal(b1-3)[Neu5Ac(a2-6)]GlcNAc(b1-3)[Fuc(a1-3)[Gal(b1-4)]GlcNAc(b1-6)]Gal(b1-4)Glc
# Method in brief: as §1
# [23] = target: Neu5Ac(a2-3)Gal(b1-3)]Neu5Ac(a2-3)Gal(b1-4)]GlcNAc
# Method in brief: as §1
# Neu5Ac(a2-3)Gal(b1-4)Glc = target: Neu5Ac(a2-3)Gal(b1-4)Glc
# Method in brief: as §1
# [24] = target: Neu5Ac(a2-3)Gal(b1-4)GlcNAc
# Method in brief: as §1
# [25] = target: Neu5Ac(a2-3)Gal(b1-4)GlcNAc(b1-2)Man
# Method in brief: as §1
# [26] = target: Neu5Ac(a2-3)Gal(b1-4)GlcNAc(b1-2)Man(a1-3)[GlcNAc(b1-4)][Neu5Ac(a2-3)Gal(b1-4)GlcNAc(b1-2)Man(a1-6)]Man(b1-4)GlcNAc(b1-4)GlcNAc
# Method in brief: as §1
# [27] = target: Neu5Ac(a2-3)Gal(b1-4)GlcNAc(b1-2)Man(a1-3)[Neu5Ac(a2-3)Gal(b1-4)GlcNAc(b1-2)Man(a1-6)]Man(b1-4)GlcNAc(b1-4)GlcNAc
# Method in brief: as §1
# [28] = target: Neu5Ac(a2-3)Gal(b1-4)GlcNAc(b1-2)Man(a1-3)[Neu5Ac(a2-3)Gal(b1-4)GlcNAc(b1-2)Man(a1-6)]Man(b1-4)GlcNAc(b1-4)[Fuc(a1-6)]GlcNAc
# Method in brief: as §1
# [29] = target: Neu5Ac(a2-3)Gal(b1-4)GlcNAc(b1-2)Man(a1-3)[Neu5Ac(a2-6)Gal(b1-4)GlcNAc(b1-2)Man(a1-6)]Man(b1-4)GlcNAc(b1-4)GlcNAc
# Method in brief: as §1
# [30] = target: Neu5Ac(a2-3)Gal(b1-4)GlcNAc(b1-2)[Neu5Ac(a2-3)Gal(b1-4)GlcNAc(b1-4)]Man(a1-3)[GlcNAc(b1-4)][Neu5Ac(a2-3)Gal(b1-4)GlcNAc(b1-2)[Neu5Ac(a2-3)Gal(b1-4)GlcNAc(b1-6)]Man(a1-6)]Man(b1-4)GlcNAc(b1-4)GlcNAc
# Method in brief: as §1
# [31] = target: Neu5Ac(a2-3)Gal(b1-4)GlcNAc(b1-2)[Neu5Ac(a2-3)Gal(b1-4)GlcNAc(b1-4)]Man(a1-3)[GlcNAc(b1-4)][Neu5Ac(a2-3)Gal(b1-4)GlcNAc(b1-4)Man(a1-6)]Man(b1-4)GlcNAc(b1-4)GlcNAc
# Method in brief: as §1
# [32] = target: Neu5Ac(a2-3)Gal(b1-4)GlcNAc(b1-2)[Neu5Ac(a2-3)Gal(b1-4)GlcNAc(b1-6)]Man(a1-6)[Neu5Ac(a2-3)Gal(b1-4)GlcNAc(b1-2)Man(a1-3)][GlcNAc(b1-4)]Man(b1-4)GlcNAc(b1-4)GlcNAc
# Method in brief: as §1
# [33] = target: Neu5Ac(a2-3)Gal(b1-4)GlcNAc(b1-3)Gal
# Method in brief: as §1
# [34] = target: Neu5Ac(a2-3)Gal(b1-4)GlcNAc(b1-3)Gal(b1-3)GlcNAc
# Method in brief: as §1
# [35] = target: Neu5Ac(a2-3)Gal(b1-4)GlcNAc(b1-3)Gal(b1-4)GlcNAc
# Method in brief: as §1
# [36] = target: Neu5Ac(a2-3)Gal(b1-4)GlcNAc(b1-3)Gal(b1-4)GlcNAc(b1-2)Man(a1-3)[Neu5Ac(a2-3)Gal(b1-4)GlcNAc(b1-3)Gal(b1-4)GlcNAc(b1-2)Man(a1-6)]Man(b1-4)GlcNAc(b1-4)GlcNAc
# Method in brief: as §1
# [37] = target: Neu5Ac(a2-3)Gal(b1-4)GlcNAc(b1-3)Gal(b1-4)GlcNAc(b1-3)Gal(b1-4)GlcNAc
# Method in brief: as §1
# [38] = target: Neu5Ac(a2-3)Gal(b1-4)GlcNAc(b1-3)Gal(b1-4)GlcNAc(b1-3)Gal(b1-4)GlcNAc(b1-2)Man(a1-3)[Neu5Ac(a2-3)Gal(b1-4)GlcNAc(b1-3)Gal(b1-4)GlcNAc(b1-3)Gal(b1-4)GlcNAc(b1-2)Man(a1-6)]GalNAc
# Method in brief: as §1
# [39] = target: Neu5Ac(a2-3)Gal(b1-4)GlcNAc(b1-3)Gal(b1-4)GlcNAc(b1-3)GalNAc
# Method in brief: as §1
# [40] = target: Neu5Ac(a2-3)Gal(b1-4)GlcNAc(b1-3)Gal(b1-4)GlcNAc(b1-3)[Neu5Ac(a2-3)Gal(b1-4)GlcNAc(b1-3)Gal(b1-4)GlcNAc(b1-6)]GalNAc
# Method in brief: as §1
# [41] = target: Neu5Ac(a2-3)Gal(b1-4)GlcNAc(b1-3)Gal(b1-4)GlcNAc(b1-6)[Gal(b1-3)]GalNAc
# Method in brief: as §1
# [42] = target: Neu5Ac(a2-3)Gal(b1-4)GlcNAc(b1-3)Gal(b1-4)[Fuc(a1-3)]GlcNAc
# Method in brief: as §1
# [43] = target: Neu5Ac(a2-3)Gal(b1-4)GlcNAc(b1-3)GalNAc
# Method in brief: as §1
# [44] = target: Neu5Ac(a2-3)Gal(b1-4)GlcNAc(b1-3)[Neu5Ac(a2-3)Gal(b1-4)GlcNAc(b1-6)]GalNAc
# Method in brief: as §1
binder,measurement,setting,value
RBMC2 (Vibrio cholerae) (protein) KISVRSGFAIDAIGASASTLVGGTGGNLNAAVNVKDIKAIDLTWGKYYWGGYHLLALDFRMSNGSVISMGSKNYAYSKQTERFTVPAGSRIKGIKAWTAGWLLDGVQFELA,glycan array binding signal (z-score),[1],-0.084
same,glycan array binding signal (z-score),[2],-0.295
same,glycan array binding signal (z-score),[3],-0.274
same,glycan array binding signal (z-score),[4],-0.313
same,glycan array binding signal (z-score),[5],-0.397
same,glycan array binding signal (z-score),[6],-0.431
same,glycan array binding signal (z-score),[7],-0.35
same,glycan array binding signal (z-score),[8],-0.185
same,glycan array binding signal (z-score),[9],-0.22
same,glycan array binding signal (z-score),[10],-0.017
same,glycan array binding signal (z-score),[11],-0.285
same,glycan array binding signal (z-score),[12],-0.37
same,glycan array binding signal (z-score),[13],-0.185
same,glycan array binding signal (z-score),[14],-0.286
same,glycan array binding signal (z-score),[15],-0.2
same,glycan array binding signal (z-score),[16],-0.42
same,glycan array binding signal (z-score),[17],-0.302
same,glycan array binding signal (z-score),[18],-0.151
same,glycan array binding signal (z-score),[19],-0.168
same,glycan array binding signal (z-score),[20],-0.155
same,glycan array binding signal (z-score),[21],-0.265
same,glycan array binding signal (z-score),[22],-0.306
same,glycan array binding signal (z-score),[23],-0.315
same,glycan array binding signal (z-score),Neu5Ac(a2-3)Gal(b1-4)Glc,0.277
same,glycan array binding signal (z-score),[24],-0.327
same,glycan array binding signal (z-score),[25],-0.319
same,glycan array binding signal (z-score),[26],0.079
same,glycan array binding signal (z-score),[27],2.79
same,glycan array binding signal (z-score),[28],2.69
same,glycan array binding signal (z-score),[29],-0.192
same,glycan array binding signal (z-score),[30],-0.232
same,glycan array binding signal (z-score),[31],-0.369
same,glycan array binding signal (z-score),[32],-0.398
same,glycan array binding signal (z-score),[33],-0.327
same,glycan array binding signal (z-score),[34],-0.419
same,glycan array binding signal (z-score),[35],-0.404
same,glycan array binding signal (z-score),[36],1.18
same,glycan array binding signal (z-score),[37],-0.27
same,glycan array binding signal (z-score),[38],0.456
same,glycan array binding signal (z-score),[39],-0.379
same,glycan array binding signal (z-score),[40],-0.254
same,glycan array binding signal (z-score),[41],-0.322
same,glycan array binding signal (z-score),[42],-0.385
same,glycan array binding signal (z-score),[43],-0.302
same,glycan array binding signal (z-score),[44],-0.26
